{
  "source": "patent US20110319597A1",
  "about": "(CAPHALON AUSTRALIA, published 2011)",
  "data": [
    {"target": "T1, recombinant human TNFα (CytoLab) (human, UniProt P01375 partial chain)", "T1 construct": "coated on the ELISA plate at 1 µg/ml; also called Tumour necrosis factor alpha", "T1 sequence (P01375 77-233 limits assumed)": "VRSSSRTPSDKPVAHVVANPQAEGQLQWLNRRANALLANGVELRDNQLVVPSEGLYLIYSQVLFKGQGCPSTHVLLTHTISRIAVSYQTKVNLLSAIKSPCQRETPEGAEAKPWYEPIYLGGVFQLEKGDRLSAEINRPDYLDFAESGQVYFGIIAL", "assay": "ELISA on coated human TNFα", "units": {"A450 (AU)": "AU"}, "values": [
      {"binder": "TNFα dAb Fc variant I48S (Fc fusion, name in Kabat numbering) DIQMTQSPSSLSASVGDRVTITCRASQAIDSYLHWYQQKPGKAPKLLSYSASNLETGVPSRFSGSGSGTDFTLTISSLLPEDFATYYCQQVVWRPFTFGQGTKVEIKRV[human IgG1 Fc with changes left out]", "A450 (AU)": 0.293},
      {"binder": "TNFα dAb Fc variant I75S (Fc fusion, name in Kabat numbering) DIQMTQSPSSLSASVGDRVTITCRASQAIDSYLHWYQQKPGKAPKLLIYSASNLETGVPSRFSGSGSGTDFTLTSSSLLPEDFATYYCQQVVWRPFTFGQGTKVEIKRV[human IgG1 Fc with changes left out]", "A450 (AU)": 0.194},
      {"binder": "TNFα dAb Fc variant I48Y (Fc fusion, name in Kabat numbering) DIQMTQSPSSLSASVGDRVTITCRASQAIDSYLHWYQQKPGKAPKLLYYSASNLETGVPSRFSGSGSGTDFTLTISSLLPEDFATYYCQQVVWRPFTFGQGTKVEIKRV[human IgG1 Fc with changes left out]", "A450 (AU)": 0.408},
      {"binder": "TNFα dAb Fc variant I75Q (Fc fusion, name in Kabat numbering) DIQMTQSPSSLSASVGDRVTITCRASQAIDSYLHWYQQKPGKAPKLLIYSASNLETGVPSRFSGSGSGTDFTLTQSSLLPEDFATYYCQQVVWRPFTFGQGTKVEIKRV[human IgG1 Fc with changes left out]", "A450 (AU)": 0.203},
      {"binder": "TNFα dAb Fc variant I75L (Fc fusion, name in Kabat numbering) DIQMTQSPSSLSASVGDRVTITCRASQAIDSYLHWYQQKPGKAPKLLIYSASNLETGVPSRFSGSGSGTDFTLTLSSLLPEDFATYYCQQVVWRPFTFGQGTKVEIKRV[human IgG1 Fc with changes left out]", "A450 (AU)": 0.858},
      {"binder": "TNFα dAb Fc variant I75P (Fc fusion, name in Kabat numbering) DIQMTQSPSSLSASVGDRVTITCRASQAIDSYLHWYQQKPGKAPKLLIYSASNLETGVPSRFSGSGSGTDFTLTPSSLLPEDFATYYCQQVVWRPFTFGQGTKVEIKRV[human IgG1 Fc with changes left out]", "A450 (AU)": 0.183},
      {"binder": "TNFα dAb Fc variant K39H (Fc fusion, name in Kabat numbering) DIQMTQSPSSLSASVGDRVTITCRASQAIDSYLHWYQQHPGKAPKLLIYSASNLETGVPSRFSGSGSGTDFTLTISSLLPEDFATYYCQQVVWRPFTFGQGTKVEIKRV[human IgG1 Fc with changes left out]", "A450 (AU)": 1.06},
      {"binder": "TNFα dAb Fc variant K45H (Fc fusion, name in Kabat numbering) DIQMTQSPSSLSASVGDRVTITCRASQAIDSYLHWYQQKPGKAPHLLIYSASNLETGVPSRFSGSGSGTDFTLTISSLLPEDFATYYCQQVVWRPFTFGQGTKVEIKRV[human IgG1 Fc with changes left out]", "A450 (AU)": 1.18},
      {"binder": "TNFα dAb Fc variant K42P (Fc fusion, name in Kabat numbering) DIQMTQSPSSLSASVGDRVTITCRASQAIDSYLHWYQQKPGPAPKLLIYSASNLETGVPSRFSGSGSGTDFTLTISSLLPEDFATYYCQQVVWRPFTFGQGTKVEIKRV[human IgG1 Fc with changes left out]", "A450 (AU)": 0.246},
      {"binder": "TNFα dAb Fc variant K39L (Fc fusion, name in Kabat numbering) DIQMTQSPSSLSASVGDRVTITCRASQAIDSYLHWYQQLPGKAPKLLIYSASNLETGVPSRFSGSGSGTDFTLTISSLLPEDFATYYCQQVVWRPFTFGQGTKVEIKRV[human IgG1 Fc with changes left out]", "A450 (AU)": 1.06},
      {"binder": "TNFα dAb Fc variant K39A (Fc fusion, name in Kabat numbering) DIQMTQSPSSLSASVGDRVTITCRASQAIDSYLHWYQQAPGKAPKLLIYSASNLETGVPSRFSGSGSGTDFTLTISSLLPEDFATYYCQQVVWRPFTFGQGTKVEIKRV[human IgG1 Fc with changes left out]", "A450 (AU)": 0.802},
      {"binder": "TNFα dAb Fc variant I75Y (Fc fusion, name in Kabat numbering) DIQMTQSPSSLSASVGDRVTITCRASQAIDSYLHWYQQKPGKAPKLLIYSASNLETGVPSRFSGSGSGTDFTLTYSSLLPEDFATYYCQQVVWRPFTFGQGTKVEIKRV[human IgG1 Fc with changes left out]", "A450 (AU)": 0.168},
      {"binder": "TNFα dAb Fc variant K39D (Fc fusion, name in Kabat numbering) DIQMTQSPSSLSASVGDRVTITCRASQAIDSYLHWYQQDPGKAPKLLIYSASNLETGVPSRFSGSGSGTDFTLTISSLLPEDFATYYCQQVVWRPFTFGQGTKVEIKRV[human IgG1 Fc with changes left out]", "A450 (AU)": 0.754},
      {"binder": "TNFα dAb Fc variant I75H (Fc fusion, name in Kabat numbering) DIQMTQSPSSLSASVGDRVTITCRASQAIDSYLHWYQQKPGKAPKLLIYSASNLETGVPSRFSGSGSGTDFTLTHSSLLPEDFATYYCQQVVWRPFTFGQGTKVEIKRV[human IgG1 Fc with changes left out]", "A450 (AU)": 0.201},
      {"binder": "TNFα dAb Fc variant I75A (Fc fusion, name in Kabat numbering) DIQMTQSPSSLSASVGDRVTITCRASQAIDSYLHWYQQKPGKAPKLLIYSASNLETGVPSRFSGSGSGTDFTLTASSLLPEDFATYYCQQVVWRPFTFGQGTKVEIKRV[human IgG1 Fc with changes left out]", "A450 (AU)": 0.196},
      {"binder": "TNFα dAb Fc variant K39Q (Fc fusion, name in Kabat numbering) DIQMTQSPSSLSASVGDRVTITCRASQAIDSYLHWYQQQPGKAPKLLIYSASNLETGVPSRFSGSGSGTDFTLTISSLLPEDFATYYCQQVVWRPFTFGQGTKVEIKRV[human IgG1 Fc with changes left out]", "A450 (AU)": 0.982},
      {"binder": "TNFα dAb Fc variant I75K (Fc fusion, name in Kabat numbering) DIQMTQSPSSLSASVGDRVTITCRASQAIDSYLHWYQQKPGKAPKLLIYSASNLETGVPSRFSGSGSGTDFTLTKSSLLPEDFATYYCQQVVWRPFTFGQGTKVEIKRV[human IgG1 Fc with changes left out]", "A450 (AU)": 0.18},
      {"binder": "TNFα dAb Fc variant K42D (Fc fusion, name in Kabat numbering) DIQMTQSPSSLSASVGDRVTITCRASQAIDSYLHWYQQKPGDAPKLLIYSASNLETGVPSRFSGSGSGTDFTLTISSLLPEDFATYYCQQVVWRPFTFGQGTKVEIKRV[human IgG1 Fc with changes left out]", "A450 (AU)": 1.03},
      {"binder": "TNFα dAb Fc variant K39P (Fc fusion, name in Kabat numbering) DIQMTQSPSSLSASVGDRVTITCRASQAIDSYLHWYQQPPGKAPKLLIYSASNLETGVPSRFSGSGSGTDFTLTISSLLPEDFATYYCQQVVWRPFTFGQGTKVEIKRV[human IgG1 Fc with changes left out]", "A450 (AU)": 0.949},
      {"binder": "TNFα dAb Fc variant K39Y (Fc fusion, name in Kabat numbering) DIQMTQSPSSLSASVGDRVTITCRASQAIDSYLHWYQQYPGKAPKLLIYSASNLETGVPSRFSGSGSGTDFTLTISSLLPEDFATYYCQQVVWRPFTFGQGTKVEIKRV[human IgG1 Fc with changes left out]", "A450 (AU)": 1.02},
      {"binder": "TNFα dAb Fc variant I75D (Fc fusion, name in Kabat numbering) DIQMTQSPSSLSASVGDRVTITCRASQAIDSYLHWYQQKPGKAPKLLIYSASNLETGVPSRFSGSGSGTDFTLTDSSLLPEDFATYYCQQVVWRPFTFGQGTKVEIKRV[human IgG1 Fc with changes left out]", "A450 (AU)": 0.167}
    ]}
  ]
}
